# Measurements as given in PMC4336329 (PLoS ONE, 2015).
# In all, about 310,000 compounds went through this assay and about 14,000 (4.5%) showed an effect of 50% or more. Effects have a minus sign here. The list shows a part of the results.
# Target: human ether-à-go-go-related gene (hERG) potassium channel (human, UniProt Q12809)
# Test: primary screen, population patch clamp on CHO cells stably expressing hERG
# 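Note: peak tail current of the secondary pulse compared with the same well before compound.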
# Chain of human ether-à-go-go-related gene (hERG) potassium channel (Q12809 whole entry, looked up): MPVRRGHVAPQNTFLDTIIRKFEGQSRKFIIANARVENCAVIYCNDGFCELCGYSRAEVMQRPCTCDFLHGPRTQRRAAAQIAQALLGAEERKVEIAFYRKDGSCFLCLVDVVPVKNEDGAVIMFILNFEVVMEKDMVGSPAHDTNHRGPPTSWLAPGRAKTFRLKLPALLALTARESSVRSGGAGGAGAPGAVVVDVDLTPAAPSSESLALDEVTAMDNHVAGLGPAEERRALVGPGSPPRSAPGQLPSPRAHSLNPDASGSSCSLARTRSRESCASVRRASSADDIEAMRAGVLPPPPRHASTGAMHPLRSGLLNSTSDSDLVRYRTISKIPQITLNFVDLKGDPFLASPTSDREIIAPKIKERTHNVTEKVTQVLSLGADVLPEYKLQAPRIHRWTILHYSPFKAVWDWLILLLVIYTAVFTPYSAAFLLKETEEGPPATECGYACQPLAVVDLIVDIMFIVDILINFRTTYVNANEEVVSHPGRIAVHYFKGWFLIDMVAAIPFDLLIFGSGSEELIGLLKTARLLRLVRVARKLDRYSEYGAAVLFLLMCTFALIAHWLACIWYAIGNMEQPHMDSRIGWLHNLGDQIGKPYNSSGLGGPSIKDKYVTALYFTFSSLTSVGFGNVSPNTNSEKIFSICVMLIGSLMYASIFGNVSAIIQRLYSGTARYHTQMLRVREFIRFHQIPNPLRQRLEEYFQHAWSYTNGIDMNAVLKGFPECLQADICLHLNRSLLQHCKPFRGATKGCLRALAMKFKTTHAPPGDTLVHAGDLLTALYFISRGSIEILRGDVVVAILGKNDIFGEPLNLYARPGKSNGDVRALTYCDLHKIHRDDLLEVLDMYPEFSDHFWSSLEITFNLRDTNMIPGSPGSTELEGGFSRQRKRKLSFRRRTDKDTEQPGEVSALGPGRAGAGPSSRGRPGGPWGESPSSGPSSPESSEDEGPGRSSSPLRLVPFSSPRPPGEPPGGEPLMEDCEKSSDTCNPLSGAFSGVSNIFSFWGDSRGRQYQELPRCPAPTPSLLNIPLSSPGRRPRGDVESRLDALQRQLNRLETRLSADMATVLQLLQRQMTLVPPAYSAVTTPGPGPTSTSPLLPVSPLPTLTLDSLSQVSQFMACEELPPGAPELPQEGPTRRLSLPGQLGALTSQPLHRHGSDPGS
row,Compound,"hERG current change (%, negative = inhibition) at 10uM"
1,COC(=O)Cn1cc(C(=O)c2cccs2)c2ccccc21,-5.76%
2,CCC(=O)NCCc1nc2cc(NC(=O)Nc3ccccc3)ccc2n1C,18.8%
3,CSCCC(NS(=O)(=O)c1ccccc1F)C(=O)NCC(C)(C)N1CCOCC1 (centres unmarked),-4.05%
4,CN(C)N1C(N)=C(C#N)C(c2ccc(Cl)cc2)C2=C1CCCC2=O (centres unmarked),-20.1%
5,CCOc1ccccc1CN1CCN(Cc2cn(C)nc2-c2ccccc2)CC1CCO (centres unmarked),-65.6%
6,Cc1ccc(CNC(=O)[C@H](Cc2ccccc2)NC(=O)C2CCNCC2)cc1,-9.1%
7,COc1cc(OC)cc(-c2cc3nc(C)c(CCC(=O)NCc4ccccc4)c(C)n3n2)c1,-33.8%
8,CC#CCN1c2ccccc2[C@]23C[C@@H](C(=O)OC)N(C(=O)C4CCC4)C2=NC(C(=O)OC)=C(C(=O)OC)[C@H]13,-10%
9,COc1ccc(CCNC(=O)c2cc(C(=O)c3cc(Cl)ccc3O)cn(CCc3ccc(OC)cc3)c2=O)cc1,-3.37%
10,CC1CCCC(NC(=O)COC(=O)c2ccc(N(C)C)cc2)C1C (centres unmarked),-1.77%
11,O=c1cc(-c2cccnc2)oc2c1ccc1ccccc12,-25.6%
12,CCOc1ccc(S(=O)(=O)N2CCCC(C(=O)NCC3CCCO3)C2)cc1Cl (centres unmarked),-17.4%
13,Brc1ccc(OCc2nnc3n2CCC3)cc1,-14%
14,CCc1ccc(-n2c(SCC(=O)Nc3cc(C)[nH]n3)nc3[nH]ncc3c2=O)cc1,-9.53%
15,Cc1cccc(N2CCN(C(=O)CCCn3c(=O)c4cccn4c4cccnc43)CC2)c1C,-34.1%
16,CC(C)(C)c1nc(S(=O)(=O)c2ccc(Cl)cc2)c(N2CCOCC2)o1,-14.2%
17,C=CCOc1ccc(CNc2ccc(NC(=O)CC(C)C)cc2)cc1OC,12.2%
18,CSc1ccc(Cl)c(C(=O)OCC(=O)Nc2ccccc2OC(F)F)c1,0.448%
19,Oc1[nH]c2ccccc2c1N=Nc1ccc(F)cc1,10.9%
20,CCNC(=O)n1nccc1C(C)Oc1ccccc1 (centres unmarked),-29.4%
21,Cc1ccc2cc(CN(C(=O)c3ccco3)c3ccccc3C)c(=O)[nH]c2c1,-3.3%
22,Nc1cccc(-c2cn(-c3cc4cc(C#CC5(O)CCCCC5)ccc4oc3=O)nn2)c1,14.8%

row,Compound,"hERG current change (%, negative = inhibition) at 10uM"
1,CCNc1nc(NCC)n2c(SCc3nc4ccccc4c(=O)[nH]3)nnc2n1,7.42%
2,COc1ccccc1-n1c(O)c(C=NCCN2CCNCC2)c(=O)[nH]c1=O,14.4%
3,Cc1ccc(C)c(OCC(O)CN2CCC(CN3C(=O)c4cccc5cccc(c45)C3=O)CC2)c1.Cl (centres unmarked),-68.2%
4,O=C(COC(=O)Cc1c(Cl)cccc1Cl)Nc1ccccc1-c1ccccc1,-0.758%
5,CCc1nnc(NS(=O)(=O)c2ccc(N/C=C\C(=O)c3cccc4ccccc34)cc2)s1,1.69%
6,Cn1c(CC(=O)NNC(=O)c2ccc(F)cc2Cl)nc2ccccc21,-7.88%
7,CCOC(=O)N1CCN(C(=O)CCS(=O)(=O)c2ccc3c(c2)CCN3C(=O)CC)CC1,14.4%
8,COc1ccc(C2=NN(C(=O)COc3ncnc4ccccc34)C(c3ccco3)C2)cc1 (centres unmarked),5.03%
9,Cc1cccc(OCCCC(=O)N2CCCc3ccccc32)c1C,14.1%
10,CCOc1ccc(N(C(C)C(=O)N2CCCCCC2)S(C)(=O)=O)cc1 (centres unmarked),-6.65%
11,O=C(O)c1c2c(nc3ccccc13)/C(=C/c1ccc(O)cc1)CCC2,-0.0981%
12,Cc1[nH+]csc1CCOC(=O)c1ccc(N2CCOCC2)c([N+](=O)[O-])c1.[Cl-],-21.2%
13,COc1ccc(CCNC(=O)CC2Oc3ccc(Cl)cc3NC2=O)cc1OC (centres unmarked),-25.9%
14,COc1ccc2[nH]c(=O)c(-c3noc(-c4ccccc4)n3)cc2c1,-0.646%
15,O=C(O)Cc1ccccc1C(=O)O,-7.48%
16,CC(CNC(=O)C1CCCCC1C(=O)O)c1ccccc1 (centres unmarked),-0.787%
17,CCOC(=O)c1ccc(S(=O)(=O)NC2CCCCCCC2)n1C,-12.4%
18,CN(Cc1nc(-c2ccccc2)no1)C(=O)c1ccco1,16.8%
19,CCN(CC)CCSc1nc2ccccc2c(=S)n1-c1ccccc1.Cl,-51.9%
20,COC(=O)c1ccccc1CC1SC(N)=NC1=O (centres unmarked),24.6%
21,CCOC(=O)C1CCN(C(=O)C2CCN(c3nc4ccc(OC)cc4s3)CC2)CC1,-67.6%
22,Cc1cn2c(nc1=O)OC1CC2OC1CO (centres unmarked),13.9%

row,Compound,"hERG current change (%, negative = inhibition) at 10uM"
1,C=CCOC(=O)C1=C(C)Nc2ncnn2C1c1cc(Br)ccc1F (centres unmarked),3.99%
2,O=C1Nc2ccccc2/C1=C/c1ccccc1F,26.3%
3,COc1ccccc1CNC(=O)CC(NS(=O)(=O)c1ccc(C)cc1)c1ccco1 (centres unmarked),-4.33%
4,COCCNC(=O)CN(Cc1ccccc1)C(=O)CCC(=O)Nc1nccs1,16.4%
5,CNc1nc(Oc2ccc(=O)n(C)n2)nc(N2CCOCC2)n1,0.884%
6,Cc1ccc(N=C(/N=C(\N)N[N+](=O)[O-])Nc2ccc(C)cc2)cc1,-0.621%
7,OC(CNCc1ccc(Cl)cc1)(c1ccccc1)c1ccc(F)cc1 (centres unmarked),-4.52%
8,CCOC(=O)Cc1csc(NC(=O)c2ccco2)n1,0.229%
9,C=CCNC(=O)C1CC(=O)N(c2ccc(OCC(=O)N3CCCC3)cc2)C1 (centres unmarked),18.2%
10,COC(=O)C(C)Sc1nnc(SC(C)C(=O)OC)s1 (centres unmarked),22.3%
11,Cn1c(O)c(N=NC(=O)Cn2c(C(F)(F)F)nc3ccccc32)c2ccccc21,6.02%
12,Cc1ccc(N=Cc2c(O)c3ccccc3n(C)c2=O)cc1,16.6%
13,N#C/C(=C(/O)c1cccc(F)c1)c1nc2ccccc2s1,24.8%
14,CS(=O)(=O)c1ccccc1-c1nnc(NC(=O)COc2ccc(Cl)cc2)o1,-6.82%
15,COc1ccc(OC)c(/C=N/NC(=O)c2nnn(-c3nonc3N)c2-c2cccs2)c1,15.2%
16,COc1ccc(NC(=S)NNC(=O)CCn2cc([N+](=O)[O-])cn2)cc1,14.4%
17,O=C1NC[C@H](c2ccccc2)N(CCc2cccc3ccccc23)C1=O,-21%
18,COc1ccc(NC(=O)/C=C/c2ccc(OC(F)F)cc2)cn1,-24.7%
19,COC(=O)c1ccc(N=NNc2ccccc2)cc1,4.36%
20,COC(=O)C1=C(c2cc3ccccc3s2)C[C@@H]2CC[C@H]1N2C(=O)NCc1cccc2ccccc12,14.7%
21,O=C(NCCN1CCOCC1)c1ccc2ccccc2c1,12.8%
22,CC1(C)CC(NS(=O)(=O)c2ccc(Cl)cc2)CC(C)(C)N1,9.34%

row,Compound,"hERG current change (%, negative = inhibition) at 10uM"
1,O=C(CCOc1ccccc1)Nc1cccc(S(=O)(=O)Nc2ccccc2Cl)c1,-10.2%
2,O=C(O)/C=C/C(=O)N1CCN(c2ccc(F)cc2)CC1,7.05%
3,COc1ccc(/C=N/NC(=O)CSCc2ccc([N+](=O)[O-])cc2)cc1OC,-45.6%
4,Cc1ccc2c(c1)N(S(=O)(=O)c1ccc(F)cc1)C(C(C)(C)C)CO2 (centres unmarked),11.4%
5,Cn1c(SCC(=O)Nc2ccc(C(N)=O)cc2)nc2c(c1=O)SCC2,13.7%
6,Oc1cc2c(cc1O)[C@H]1c3ccc(O)c(O)c3OC[C@@]1(O)C2,11%
7,Cc1ccc(O)c(N=NC2=C(O)CC(C)(C)CC2=O)c1,3.16%
8,COc1c2c(c(C)c3c1C(=O)OC3)O[C@@]1(C)CC[C@@]3(O)C(C)(C)OC(=O)CC[C@]3(C)[C@H]1C2,-1.16%
9,CC(=O)OCC(=O)Nc1c(C)cccc1C,4.71%
10,CC(C)=C1SC(N2CCN(c3cccc(C)c3)CC2)=NC1=O,-18.1%
11,Cc1ccc(S(=O)(=O)N2CCN(C(=O)CN3C(=O)NC4(CCCCC4)C3=O)CC2)c(C)c1,1.52%
12,CCOC(=O)[C@@H]1[C@H]2COc3ccccc3[C@@H]2N2C(=O)N(c3ccccc3)C(=O)[C@]12C,-12.8%
13,O=C(/C=C/c1ccccc1Cl)N1CCCN(C(=O)/C=C/c2ccccc2Cl)CC1,-26.1%
14,COc1ccc(Cl)cc1C(=O)NCc1ccco1,-9.57%
15,Cc1ccc(/C=N/c2sc3c(c2C#N)CCC3)o1,2.41%
16,CC(=O)N1CCCN(Cc2nc(C3(c4ccc(C)cc4)CCCC3)no2)CC1,22.3%
17,O=C(COC(=O)c1ccc(O)cc1)Nc1cccc(S(=O)(=O)N2CCCCC2)c1,-32.9%
18,COc1ccc(N(C)S(=O)(=O)c2cccc3cccnc23)c(OC)c1,-1.31%
19,COc1ccc(N2CCN(C(=O)CN3C(=O)NC4(CCCc5ccccc54)C3=O)CC2)cc1 (centres unmarked),-7.06%
20,C/C(=N\Nc1nccnc1Cl)c1ccc([N+](=O)[O-])cc1,-4.09%
